Source: the supplement of paper PMC4604168 (melanoma cell lines)
Some of the results follow. Many values rest on one well or one pass, so single values are uncertain.

test system: G361; assay: cell count relative to DMSO control; melanoma cells; higher = more viable cells; conditions: library dose: standard library concentration; 72 h
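Further: cells treated in 1,536-well plates, then fixed and DAPI-stained, with nuclei counted from automated high-throughput microscope images.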

Compound	cell count
NC1(c2ccc(-c3nc4ccn5c(=O)[nH]nc5c4cc3-c3ccccc3)cc2)CCC1 + OCCn1cc(-c2cnc3nnn(Cc4ccc5ncccc5c4)c3n2)cn1 [PF04217903] (first compound 2 µM, partner dose 5 µM)	91.2%
C=C(c1ccc(C(=O)O)cc1)c1cc2c(cc1C)C(C)(C)CCC2(C)C [Bexarotene] + C#Cc1cccc(Nc2ncnc3cc(OCCOC)c(OCCOC)cc23)c1 [erlotinib] (first compound 10 µM, partner dose 4 µM)	77.7%
CS(=O)(=O)c1ccc(C(=O)Nc2ccc(Cl)c(-c3ccccn3)c2)c(Cl)c1 [vismodegib] + CC(C)CCN1c2nc(Nc3cc(F)c(O)c(F)c3)ncc2N(C)C(=O)C1C [BID1870] (first compound 5 µM, partner dose 1 µM)	62.6%
NC1(c2ccc(-c3nc4ccn5c(=O)[nH]nc5c4cc3-c3ccccc3)cc2)CCC1 + COc1cc2c(Oc3ccc4[nH]c(C)cc4c3F)ncnc2cc1OCCCN1CCCC1 [cediranib] (first compound 2 µM, partner dose 2 µM)	84.8%
C=C(c1ccc(C(=O)O)cc1)c1cc2c(cc1C)C(C)(C)CCC2(C)C [Bexarotene] + COc1ccc2c(c1)CCC1C2CCC2(C)C(NCCCCCCN3C(=O)C=CC3=O)CCC12 [U73122] (first compound 10 µM, partner dose 2 µM)	64.6%
NC1(c2ccc(-c3nc4ccn5c(=O)[nH]nc5c4cc3-c3ccccc3)cc2)CCC1 + CS(=O)(=O)CCNCc1ccc(-c2ccc3ncnc(Nc4ccc(OCc5cccc(F)c5)c(Cl)c4)c3c2)o1 [lapatinib] (first compound 2 µM, partner dose 4 µM)	16.3%
CS(=O)(=O)c1ccc(C(=O)Nc2ccc(Cl)c(-c3ccccn3)c2)c(Cl)c1 [vismodegib] + COCC[n+]1c2c(n(Cc3cnccn3)c1C)C(=O)c1ccccc1C2=O [YM155] (first compound 5 µM, partner dose 0.002 µM)	87.2%
CCCS(=O)(=O)Nc1ccc(F)c(C(=O)c2c[nH]c3ncc(Cl)cc23)c1F + CC(=O)c1c(C)c2cnc(Nc3ccc(N4CCNCC4)cn3)nc2n(C2CCCC2)c1=O [palbociclib] (first compound 0.4 µM, partner dose 0.2 µM)	47%
C=C(c1ccc(C(=O)O)cc1)c1cc2c(cc1C)C(C)(C)CCC2(C)C [Bexarotene] + O=C(O)C(=O)Nc1sc2c(c1C(=O)O)CCNC2 [TCS401] (first compound 10 µM, partner dose 8.33333 µM)	70.8%
CCCS(=O)(=O)Nc1ccc(F)c(C(=O)c2c[nH]c3ncc(Cl)cc23)c1F + Nc1nc(F)nc2c1ncn2[C@@H]1O[C@H](CO)[C@@H](O)[C@@H]1O [fludarabine] (first compound 0.4 µM, partner dose 1 µM)	79.4%
NC1(c2ccc(-c3nc4ccn5c(=O)[nH]nc5c4cc3-c3ccccc3)cc2)CCC1 + COc1ccc2c(c1)CCC1C2CCC2(C)C(NCCCCCCN3C(=O)C=CC3=O)CCC12 [U73122] (first compound 2 µM, partner dose 2 µM)	96.3%
CS(=O)(=O)c1ccc(C(=O)Nc2ccc(Cl)c(-c3ccccn3)c2)c(Cl)c1 [vismodegib] + COc1cc(N2CCC(N3CCN(C)CC3)CC2)ccc1Nc1ncc(Cl)c(Nc2ccccc2S(=O)(=O)C(C)C)n1 [NVP-TAE684] (first compound 5 µM, partner dose 0.4 µM)	93.4%
C=C(c1ccc(C(=O)O)cc1)c1cc2c(cc1C)C(C)(C)CCC2(C)C [Bexarotene] + O=c1cc(-c2cccc3c2Sc2ccccc2S3)oc(N2CCOCC2)c1 [KU55933] (first compound 10 µM, partner dose 5 µM)	79.7%
CS(=O)(=O)c1ccc(C(=O)Nc2ccc(Cl)c(-c3ccccn3)c2)c(Cl)c1 [vismodegib] + OCc1c[nH]c2ccccc12 [Indole-3-carbinol] (first compound 5 µM, partner dose 4 µM)	93.3%
CN(c1ncccc1CNc1nc(Nc2ccc3c(c2)CC(=O)N3)ncc1C(F)(F)F)S(C)(=O)=O + CC1(C)NC(=O)N(c2ccc([N+](=O)[O-])c(C(F)(F)F)c2)C1=O [nilutamide] (first compound 0.4 µM, partner dose 5 µM)	69.9%
CS(=O)(=O)c1ccc(C(=O)Nc2ccc(Cl)c(-c3ccccn3)c2)c(Cl)c1 [vismodegib] + NCC(=O)Nc1ccc(-n2nc(C(F)(F)F)cc2-c2ccc3c(ccc4ccccc43)c2)cc1 [OSU03012] (first compound 5 µM, partner dose 5 µM)	63.6%
CS(=O)(=O)c1ccc(C(=O)Nc2ccc(Cl)c(-c3ccccn3)c2)c(Cl)c1 [vismodegib] + C[C@]1(c2nc3c(C(N)=O)cccc3[nH]2)CCCN1 [Veliparib] (first compound 5 µM, partner dose 7 µM)	85.7%
NC1(c2ccc(-c3nc4ccn5c(=O)[nH]nc5c4cc3-c3ccccc3)cc2)CCC1 + C=CCn1c(=O)c2cnc(Nc3ccc(N4CCN(C)CC4)cc3)nc2n1-c1cccc(C(C)(C)O)n1 [MK1775] (first compound 2 µM, partner dose 0.1 µM)	82.7%
